{"source": "patent US8809377B2", "about": "“Deubiquitinase inhibitors and methods for use of the same” (The Regents of the University of Michigan, priority 2010, dated 2014)", "key": {"[1]": {"test_system": "Z138", "assay": "MTT cell growth, survival and apoptosis", "details": "Homo sapiens, Z-138, read-out: apoptotic sensitivity IC50"}, "[2]": {"test_system": "Bcr-Abl", "assay": "Bcr-Abl immunoblot of cell fractions", "type": "cell-based", "details": "CML cells"}, "[3]": {"target": "T1, USP9X (Homo sapiens, UniProt Q93008)", "T1 construct": "USP9x; immunoprecipitated from 500 μg Z138 cell lysate; endogenous in cells; host or cells: H929, WDT2, Z138, CML cell lines", "T1 sequence (Q93008 whole entry)": "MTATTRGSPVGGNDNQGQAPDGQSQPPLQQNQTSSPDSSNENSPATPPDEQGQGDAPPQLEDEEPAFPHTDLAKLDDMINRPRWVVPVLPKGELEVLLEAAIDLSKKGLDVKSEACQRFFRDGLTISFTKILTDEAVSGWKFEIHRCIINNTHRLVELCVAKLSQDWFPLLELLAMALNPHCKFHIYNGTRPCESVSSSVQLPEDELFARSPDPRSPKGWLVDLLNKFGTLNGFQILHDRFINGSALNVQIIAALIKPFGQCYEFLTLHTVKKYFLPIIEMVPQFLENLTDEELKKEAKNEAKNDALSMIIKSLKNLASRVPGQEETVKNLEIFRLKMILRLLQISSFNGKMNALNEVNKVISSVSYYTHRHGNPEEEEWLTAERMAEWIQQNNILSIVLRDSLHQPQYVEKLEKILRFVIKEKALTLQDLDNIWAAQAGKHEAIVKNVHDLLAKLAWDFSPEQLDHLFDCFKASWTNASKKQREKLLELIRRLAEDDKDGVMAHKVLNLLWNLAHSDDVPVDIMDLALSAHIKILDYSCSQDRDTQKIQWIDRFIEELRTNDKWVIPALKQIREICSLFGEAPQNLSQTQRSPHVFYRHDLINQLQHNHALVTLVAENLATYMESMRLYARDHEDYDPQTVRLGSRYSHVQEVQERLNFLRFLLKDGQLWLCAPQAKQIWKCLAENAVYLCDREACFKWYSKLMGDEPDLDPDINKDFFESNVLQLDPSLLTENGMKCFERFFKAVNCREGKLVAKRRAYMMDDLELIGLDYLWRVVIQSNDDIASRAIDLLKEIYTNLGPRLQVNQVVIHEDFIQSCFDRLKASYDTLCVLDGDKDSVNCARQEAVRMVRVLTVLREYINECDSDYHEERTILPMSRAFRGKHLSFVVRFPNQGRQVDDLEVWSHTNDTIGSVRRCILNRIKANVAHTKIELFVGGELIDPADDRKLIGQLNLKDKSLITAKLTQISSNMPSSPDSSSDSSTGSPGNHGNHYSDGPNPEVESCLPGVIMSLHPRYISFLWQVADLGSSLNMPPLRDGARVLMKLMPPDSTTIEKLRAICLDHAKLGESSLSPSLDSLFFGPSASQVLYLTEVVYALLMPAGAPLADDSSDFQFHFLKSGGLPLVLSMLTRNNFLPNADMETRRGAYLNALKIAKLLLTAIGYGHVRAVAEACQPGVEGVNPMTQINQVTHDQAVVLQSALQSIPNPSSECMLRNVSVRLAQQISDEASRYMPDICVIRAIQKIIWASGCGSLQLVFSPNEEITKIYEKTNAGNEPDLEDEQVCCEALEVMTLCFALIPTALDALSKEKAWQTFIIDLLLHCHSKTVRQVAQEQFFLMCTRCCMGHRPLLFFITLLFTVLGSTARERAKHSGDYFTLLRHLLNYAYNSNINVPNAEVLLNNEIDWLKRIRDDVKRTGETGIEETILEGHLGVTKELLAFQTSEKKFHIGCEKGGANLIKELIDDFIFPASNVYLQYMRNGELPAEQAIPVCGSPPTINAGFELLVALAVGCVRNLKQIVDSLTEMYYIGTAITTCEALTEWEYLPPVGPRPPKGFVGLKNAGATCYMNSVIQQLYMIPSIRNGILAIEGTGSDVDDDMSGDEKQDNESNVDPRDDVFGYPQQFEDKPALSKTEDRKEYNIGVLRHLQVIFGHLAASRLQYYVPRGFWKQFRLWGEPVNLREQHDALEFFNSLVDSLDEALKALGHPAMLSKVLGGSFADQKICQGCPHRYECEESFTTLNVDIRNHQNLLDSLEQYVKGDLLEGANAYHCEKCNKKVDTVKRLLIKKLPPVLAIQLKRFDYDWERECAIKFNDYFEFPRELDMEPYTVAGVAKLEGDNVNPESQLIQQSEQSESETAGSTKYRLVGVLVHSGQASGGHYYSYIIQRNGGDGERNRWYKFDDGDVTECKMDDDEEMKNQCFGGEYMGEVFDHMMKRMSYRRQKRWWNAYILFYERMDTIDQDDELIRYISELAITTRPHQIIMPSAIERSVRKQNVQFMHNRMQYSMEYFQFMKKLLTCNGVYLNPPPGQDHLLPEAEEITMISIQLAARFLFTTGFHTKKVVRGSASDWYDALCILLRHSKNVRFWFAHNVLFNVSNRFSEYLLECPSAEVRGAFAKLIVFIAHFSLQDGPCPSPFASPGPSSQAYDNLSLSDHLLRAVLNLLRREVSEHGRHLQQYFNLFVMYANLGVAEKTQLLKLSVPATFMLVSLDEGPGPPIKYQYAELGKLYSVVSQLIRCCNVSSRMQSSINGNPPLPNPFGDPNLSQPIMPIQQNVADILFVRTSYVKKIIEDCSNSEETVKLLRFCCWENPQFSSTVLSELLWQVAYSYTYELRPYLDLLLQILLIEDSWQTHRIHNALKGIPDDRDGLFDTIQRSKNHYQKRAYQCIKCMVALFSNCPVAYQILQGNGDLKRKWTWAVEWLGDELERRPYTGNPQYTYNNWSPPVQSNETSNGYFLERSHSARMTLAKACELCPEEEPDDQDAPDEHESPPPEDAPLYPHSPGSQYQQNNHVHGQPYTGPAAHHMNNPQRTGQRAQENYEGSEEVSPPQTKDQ", "assay": "Ub-AMC assay on immunoprecipitated USP9x", "type": "biochemical"}, "[4]": {"test_system": "USP9X", "assay": "Western / HA-UbVS labeling of USP9X in intact cells or lysates", "type": "cell-based"}, "[5]": {"test_system": "ubiquitinated proteins", "assay": "Ubiquitin immunoblot of cell extracts", "type": "cell-based", "protocol": "Total cell lysates were prepared by boiling and sonicating cell pellets in 1× Laemmli reducing sample buffer. To prepare detergent soluble and insoluble fractions, cells were lysed in cold isotonic lysis buffer [10 mM Tris-HCl (pH 7.5), 0.5% Triton X-100, 150 mM NaCl along with Mini-Complete and PhosSTOP] for 15 min on ice and centrifuged 10 min at 20,000 RCF. The clarified supernatant was used as the detergent soluble cell fraction. The residual pellet was washed and extracted in Laemmli reducing sample buffer and briefly sonicated to derive the detergent insoluble fraction. Equal volumes of cellular lysate or equal protein amounts were electrophoresed on SDS-PAGE gels and transferred to nitrocellulose membranes (Whatmann, Dassel, Germany). Proteins were detected by immunoblotting.\nWhole cell lysates were prepared by boiling and sonicating the cell pellets in 1× Laemmli reducing sample buffer. To prepare detergent soluble and insoluble fractions, cells were lysed in cold isotonic lysis buffer [10 mM Tris-HCl (pH 7.5), 0.5% Triton X-100, 150 mM NaCl along with Mini-Complete and PhosSTOP] for 15 min on ice and centrifuged 10 minutes at 20,000 RCF. The clarified supernatant was used as a source of the detergent soluble cell fraction. The detergent insoluble fraction was extracted by the sonication of residual pellet in equal volumes of boiling 1× Laemmli reducing sample buffer. […]"}}, "data": [{"smiles": "CCC[C@H](NC(=O)/C(C#N)=C/c1cccc(Br)n1)c1ccccc1", "note": "[WP1130]", "values": [{"measurement": "IC50", "setting": "[1]", "result": "~1000", "unit": "nM"}, {"measurement": "Bcr-Abl protein levels", "setting": "[2]; 5 μM, 2 hours", "result": "reduced"}, {"measurement": "Bcr-Abl trafficking from detergent soluble to insoluble cell fraction", "setting": "[2]; WP1130 5 μM, bortezomib 50 nM", "result": "rapid and near complete trafficking"}, {"measurement": "reduction of USP9x activity", "setting": "[3]; 5 μM, USP9x immunoprecipitated from Z138 lysates", "result": "≥ 80", "unit": "%"}, {"measurement": "reduction of Usp9x activity", "setting": "[3]; Usp9x immunoprecipitated from CML cells", "result": "> 80", "unit": "%"}, {"measurement": "Usp9x labeling by HA-UbVs", "setting": "[4]; CML cell lysates incubated with compound for 1 h", "result": "completely blocked"}, {"measurement": "Usp9x activity (HA-UbVs labeling)", "setting": "[4]; CML cells treated for 4 hours", "result": "effectively reduced"}, {"measurement": "HA-UbVS labeling of USP9x", "setting": "[4]; Z138 treated cells", "result": "dose-dependent and time reduction in the labeling"}, {"measurement": "ubiquitinated protein levels", "setting": "[5]; CML cells", "result": "rapid increase"}, {"measurement": "accumulation of ubiquitinated proteins", "setting": "[5]; Z138 cells", "result": "marked and concentration-dependent accumulation"}]}]}
